Laboratory results taken from PubChem BioAssay AID360 (National Center for Advancing Translational Sciences (NCATS), 2006).
Among all 48,000 compounds or so, about 550 (1.1%) were called active. Another 4% or so got no clear call; they are omitted. Rule as the data show it: active = potency below about 15 µM; inconclusive = mostly about 16 µM to 33 µM; inactive = weaker than that. The list shows a part of the results.

molecular target: Lysosomal acid glucosylceramidase (Homo sapiens) (UniProt P04062); test: Glucocerebrosidase; settings: purified enzyme, resorufin glucoside fluorescence (screen aimed at inhibitors), 20 min;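 also: the screen sought inhibitors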
Sequence of UniProt P04062 (P04062 whole entry, looked up): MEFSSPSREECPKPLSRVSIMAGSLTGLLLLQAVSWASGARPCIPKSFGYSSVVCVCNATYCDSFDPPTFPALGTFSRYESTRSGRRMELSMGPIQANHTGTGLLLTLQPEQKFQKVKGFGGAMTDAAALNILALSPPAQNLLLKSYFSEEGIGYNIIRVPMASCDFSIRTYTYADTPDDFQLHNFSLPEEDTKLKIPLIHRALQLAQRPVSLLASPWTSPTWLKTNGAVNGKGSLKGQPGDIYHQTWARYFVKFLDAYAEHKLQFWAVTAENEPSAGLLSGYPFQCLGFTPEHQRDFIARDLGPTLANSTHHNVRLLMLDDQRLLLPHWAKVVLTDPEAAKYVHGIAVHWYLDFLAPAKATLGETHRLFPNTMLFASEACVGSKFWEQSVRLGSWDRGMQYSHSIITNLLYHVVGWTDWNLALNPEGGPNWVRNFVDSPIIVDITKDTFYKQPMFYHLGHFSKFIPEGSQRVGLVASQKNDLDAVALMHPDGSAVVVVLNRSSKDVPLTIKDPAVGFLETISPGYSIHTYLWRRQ
How it was run: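 Wild-type enzyme at 0.2 nM final in 50mM citric acid/KH2PO4, 10mM sodium taurocholate, 0.01% tween-20, pH 5.9, with resorufin beta-D-glucopyranoside at 30 uM final. Compounds titrated, 20 min at RT, red fluorescence read; AC50 from titration.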
Potency is read from the fitted curve at half-maximal effect.

Potency, inactive:
Cc1cc(Br)ccc1NC(=O)CNC(=O)CN(C)Cc1nc2ccccc2c(=O)[nH]1 > 76.9 µM
Cc1cccc(N(C)S(=O)(=O)c2cccc3nsnc23)c1 > 76.9 µM
CCC(=O)Nc1cc(C(F)(F)F)ccc1N1CCOCC1 > 76.9 µM
CC(C)CNC(=O)COc1ccc2c3c(c(=O)oc2c1)CCC3 > 76.9 µM
COc1ccc(OC)c(-c2cc(C(=O)N3CCN(c4ncccn4)CC3)c3ccccc3n2)c1 > 76.9 µM
CCOc1ccc(-c2nnn(CC(=O)c3ccc4c(c3)OCCO4)n2)cc1 > 76.9 µM
CCOC(=O)c1ccc(NC(=O)CCc2nc(-c3ccc(Cl)cc3)no2)cc1 > 76.9 µM
NC(=O)NC(Cc1ccccc1)C(=O)NCC1(N2CCCCC2)CCCCC1 (stereo not drawn) > 76.9 µM
O=C(CCCc1nc2ccccc2s1)N1CCN(S(=O)(=O)c2cccs2)CC1 > 76.9 µM
N#CCCn1c(SCC(=O)N2CCN(S(=O)(=O)c3ccccc3)CC2)nc2ccccc21 > 76.9 µM
O=S(=O)(Cc1ccccc1)N1CCN(Cc2ccccc2)CC1 > 76.9 µM
CC1CCCC(C)N1CCNC(=O)C1CCN(S(=O)(=O)N2CCCCC2)CC1 (stereo not drawn) > 76.9 µM
CC(C)Oc1ccc(C(=O)N(Cc2ccco2)C2CCS(=O)(=O)C2)cc1 (stereo not drawn) > 76.9 µM
COCCn1nnnc1C(c1ccc2ncccc2c1)N1CCN(c2ccccc2F)CC1 (stereo not drawn) > 76.9 µM
Cc1ccc(S(=O)(=O)CCC(=O)Nc2ccc3c(c2)OCO3)cc1 > 76.9 µM
COc1ccc2nc(SCC(=O)N3CCCCCC3)c(C#N)cc2c1 > 76.9 µM
CCOc1ccccc1NC(=O)NC1(C(=O)N2CCN3CCCC3C2)CCCCC1 (stereo not drawn) > 76.9 µM
CCOC(=O)C1=C(C)N(C)C(=O)NC1c1cc2c(cc1Br)OCO2 (stereo not drawn) > 76.9 µM
COc1ccc2c3c(cccc13)NN=C2C > 76.9 µM
COc1cccc(C(CC(=O)NCc2ccco2)NS(=O)(=O)c2ccc(C)cc2)c1OC (stereo not drawn) > 76.9 µM
COc1cc(-c2nc3cnccn3c2Nc2ccc3c(c2)OCCO3)ccc1O > 76.9 µM
CCCS(=O)(=O)N1CCC(C(=O)NCc2ccco2)CC1 > 76.9 µM
CCC(Oc1ccccc1)C(=O)Nc1nnc(C(F)(F)F)s1 (stereo not drawn) > 76.9 µM
O=C(Nc1ccc2c(c1)OCO2)C1CCCN(S(=O)(=O)Cc2ccccc2)C1 (stereo not drawn) > 76.9 µM
COc1cc(NC(=O)c2ccc(Br)o2)ccc1NC(=O)c1ccccc1Cl > 76.9 µM
COc1cc(C(=O)OCC(=O)N(C)Cc2ccccc2)cc(OC)c1OC > 76.9 µM
CCn1c(C(=O)N2CCCC(C(=O)NCCc3ccc(C)cc3)C2)cc2sccc21 (stereo not drawn)
Cc1nc(-c2ccc(C(=O)N3CCOCC3)cc2)cs1 > 76.9 µM
CCCn1c(=O)c2ccccc2n2c(SCCOc3ccc(Cl)cc3)nnc12 > 76.9 µM
O=C(NCC1COc2ccccc2O1)c1c[nH]c2ccc(S(=O)(=O)N3CCOCC3)cc2c1=O (stereo not drawn) > 76.9 µM
O=C(NCc1ccc(Cl)cc1)c1noc2c1CCCC2 > 76.9 µM
Cc1onc(-c2ccccc2Cl)c1C(=O)NCCCN1CCOCC1 > 76.9 µM
Cc1ccc(-c2nnn(Cc3nc4ccccc4s3)n2)cc1 > 76.9 µM
COc1ccccc1C(=O)Nc1ccccc1SC > 76.9 µM
CCOC(NC(=O)c1ccccc1)C(NC(=O)c1ccccc1)OCC (stereo not drawn) > 76.9 µM
N#Cc1ccc(OCC(=O)N2CCN(S(=O)(=O)c3cccs3)CC2)cc1 > 76.9 µM
COC(=O)c1ccc(CSc2nc(-c3ccc(OC)cc3)nc3c2c(=O)n(C)c(=O)n3C)o1 > 76.9 µM
CC(=O)Nc1ccc(OCC(O)CN2CCN(c3ccc(C)c(Cl)c3)CC2)cc1 (stereo not drawn) > 76.9 µM
COCc1cc(=O)[nH]c(SCC(=O)Nc2ccccc2)n1 > 76.9 µM
O=C(Cc1nn[nH]n1)NCCC1=CCCCC1 > 76.9 µM
O=C1CCCC2=C1C(c1ccc3c(c1)OCO3)c1c([nH]n(-c3ccccc3)c1=O)N2 (stereo not drawn) > 76.9 µM
Cc1csc(NC(=O)c2ccccc2O)n1 > 76.9 µM
COc1ccccc1OCC(=O)Nc1oc(-c2ccccc2)c(-c2ccccc2)c1C#N > 76.9 µM
CC1CCCN(C(=O)c2ccc3nc[nH]c3c2)C1 (stereo not drawn) > 76.9 µM
Cc1cc(C)c2cc(C#N)c(NCCCNC(=O)CCC(=O)O)nc2c1 > 76.9 µM
CCC(C)(C)n1nnnc1CN(Cc1ccco1)Cc1cc2cc3c(cc2[nH]c1=O)OCO3 > 76.9 µM
CC(C)OC(=O)Nc1ccc(Oc2c(F)c(F)c(F)c(F)c2F)cc1 > 76.9 µM
COc1ccc(N2CCN(S(=O)(=O)c3ccc(C(=O)NC4CCCC4)cc3)CC2)cc1 > 76.9 µM
Cc1ccc(NCN2C(=O)c3ccccc3C2=O)c(C)c1 > 76.9 µM
CCCN(CCC)C(=O)Cn1c(=O)n(CCCCC(=O)NC2CCCC2)c(=O)c2ccccc21 > 76.9 µM
COC(=O)c1[nH]c2ccccc2c1NC(=O)CNC1CCCCC1 > 76.9 µM
CN(C(=O)Cn1c(=O)n(CCCCC(=O)NC2CCCC2)c(=O)c2ccccc21)C1CCCCC1 > 76.9 µM
Cc1ccnc(SCCn2c(N3CCOCC3)nc3c2c(=O)[nH]c(=O)n3C)n1 > 76.9 µM
CCOC(=O)C1CCN(C(=O)COC(=O)CCOc2ccc(C)cc2)CC1 > 76.9 µM
CC(C)(C)NC(=O)NC(=O)COc1ccccc1C#N > 76.9 µM
O=C(Cn1cnc2c(cnn2-c2ccccc2)c1=O)OCc1ccccc1 > 76.9 µM
COc1ccc2[nH]c(C(=O)O)c(CCNC(C)=O)c2c1 > 76.9 µM
CCOc1ccc2[nH]c(=O)c(CN(CC3CCCN3CC)C(=O)NCc3ccccc3)cc2c1 (stereo not drawn) > 76.9 µM
COC(=O)c1cc(NC(=O)Cn2c(=O)cnc3ccccc32)cc(C(=O)OC)c1 > 76.9 µM
O=C(NCc1cccs1)C1CCCN(S(=O)(=O)c2cccs2)C1 (stereo not drawn) > 76.9 µM
CCC(CCC(=O)Nc1ccn(-c2ccccc2)n1)C(=O)O (stereo not drawn) > 76.9 µM
CCC(=O)N1CCN(c2ccccc2NC(=O)Cc2ccccc2)CC1 > 76.9 µM
CCn1c(=O)c(C(=O)NCc2ccc(OC)cc2)c(O)c2ccccc21 > 76.9 µM
CCOC(=O)N1CCN(C(=O)c2ccc(CNS(=O)(=O)c3ccc(C)cc3)cc2)CC1 > 76.9 µM
CCn1c(=O)c2c(nc(SCC(=O)NCC3CCCO3)n2C)n(C)c1=O (stereo not drawn) > 76.9 µM
COc1ccc(N2CCN(CCNC(=O)c3ccc(NC(=O)C4CCCO4)cc3)CC2)cc1 (stereo not drawn) > 76.9 µM
CC(C)Cn1c(SCC(=O)NC(=O)Nc2ccc3c(c2)OCCO3)nc2ccccc2c1=O > 76.9 µM
COCC(C)NC(=O)c1cccc(Cl)c1 (stereo not drawn) > 76.9 µM
CCOC(=O)CSc1nnc([C@H](C)NC(=O)OC(C)(C)C)o1 > 76.9 µM
COc1ccc(N2CCN(C(=O)Cn3c(=O)[nH]c4ccsc4c3=O)CC2)cc1 > 76.9 µM
COc1ccc(CCNS(=O)(=O)c2cccc3nsnc23)cc1OC > 76.9 µM
O=C(CCC1COc2ccccc2O1)Nc1ccccn1 (stereo not drawn) > 76.9 µM
Cc1cc(NC(=O)COc2ncnc3sc(C)c(C)c23)no1 > 76.9 µM
C=CCn1c(SCC(=O)N2CCOCC2)nc2sc3c(c2c1=O)CCCC3 > 76.9 µM
O=C(NCc1cccnc1)c1ccc(S(=O)(=O)N2CCOCC2)cc1 > 76.9 µM
O=C(c1ccccc1)N1CCCCC(Sc2nnnn2-c2ccccc2)C1=O (stereo not drawn) > 76.9 µM
COC(=O)c1[nH]c2cccc(OC)c2c1NC(=O)CN1CCC(C(N)=O)(N2CCCCC2)CC1 > 76.9 µM
Cc1ccc2c(CC(=O)OC(C)C(=O)NCc3ccc4c(c3)OCO4)coc2c1 (stereo not drawn) > 76.9 µM
COc1ccc(Cl)cc1S(=O)(=O)N1CCCC(C(=O)NCC(N)=O)C1 (stereo not drawn) > 76.9 µM
CC(C)c1ccc(NC(=O)C(c2ccccc2)N2CCN(C=O)CC2)cc1 (stereo not drawn)
CCOC(=O)c1c(C)[nH]c(C(=O)CN2CC(C)OC(C)C2)c1C (stereo not drawn)
COC(=O)c1cnc2c(C(F)(F)F)cccc2c1OC > 76.9 µM
C=CCn1c(COc2cccc3cccnc23)nnc1SCC(=O)OC > 76.9 µM
CCCn1c(=N)c(C(=O)NCC2CCCO2)cc2c(=O)n3cccc(C)c3nc21 (stereo not drawn) > 76.9 µM
CN1C(=O)Cc2cc(S(=O)(=O)N3CCOCC3)ccc21 > 76.9 µM
CCOC(=O)c1c(C)c(C(=O)NCC2CCCO2)c(C)n1C (stereo not drawn) > 76.9 µM
COc1cc2c(cc1OC)C(C)N(C(=O)c1cc3n(n1)C(C(F)(F)F)CC(c1ccco1)N3)CC2 (stereo not drawn) > 76.9 µM

Potency, active:
N#Cc1ccc(-c2nnnn2-c2ccc3c(c2)OCO3)cc1 14.8 µM
